The campaign covered roughly 45,000 compounds. About 200 (0.44%) were called active. Not shown: some 7% with an inconclusive outcome. The call rests on the fitted dose curve; in most records, active means well fitted activation curve with a large enough effect; inconclusive means small, poorly fitted or top-dose-only effect; inactive means no such curve, though single readings can be large or run the other way. Some of the results follow.

This test is described as follows: qHTS of TDP-43 Inhibitors: NCGC Sytravon Library Screen. Further: 0% is about no effect; nearly all actives have a fitted effect of over 55% in size. As to conditions: yeast TDP-43 toxicity rescue, BacTiter-Glo growth, 24 h; series mostly up to 46.1 µM; growth rescue (activation): at the top concentration. An outline of the steps:
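TDP-43-expressing yeast, pregrown in raffinose, seeded at OD600 0.02 in galactose medium with compound for 24 hr at 30 deg C. Growth read by BacTiter-Glo luminescence, so rescue of toxicity appears as activation.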
In general terms: qHTS replaces the single test concentration by a dilution series.
`Cc1ccc(-c2nc3ccccn3c2C=O)cc1`: the “growth rescue (activation)” value was inactive: 22.3%.
To `Cc1no[n+]([O-])c1COc1ccc(/C=N/n2nnnc2N)cc1` belongs inactive: 3.27%.
To `CCNc1nc2c(c(=O)n(C)c(=O)n2C)n1CCCc1ccccc1` belongs inactive: 1.54%.
As for `O=C(c1nnc(-c2ccccc2)o1)C1CC1`, the figure is inactive: 14.8%; as for `CN(CC(=O)N1CCN(Cc2ccccc2)CC1)C(=O)Cc1ccc(Cl)c(Cl)c1`, inactive: 2.73%; as for `CC(=O)c1ccccc1NC(=O)CSc1n[nH]c(=O)n1C1CC1`, inactive: 1.31%.
Consider `CN(/N=C/c1ccco1)C1=NS(=O)(=O)c2ccccc21`, for which the “growth rescue (activation)” value was inactive: -2.08%.
As for `COCC1CCCCN1Cc1cn[nH]c1-c1ccc(OC)cc1OC` (stereo not given), the figure is inactive: 3.84%; as for `Cc1c(C(=O)N2CCC2)oc2c(F)cccc12`, inactive: -2.27%.
To `Cc1cccc(NC(=O)c2ccc(OCc3c(C)noc3C)cc2)c1C` belongs inactive: 5.63%.
To `COc1ccc2nc(SCC(=O)NCc3ccc(F)cc3)[nH]c2c1` belongs inactive: -1.89%; to `Cc1ccc2nc(C)c(C(=O)O)cc2c1`, inactive: 7.97%; to `Cc1ccc(C)c(NS(=O)(=O)c2ccc(OCC(=O)NCc3ccccn3)cc2)c1`, inactive: 2.52%.
With `OC1(c2ccc(OC(F)F)cc2)CSC(=Nc2cccnc2)N1Cc1ccco1` (stereo not given), the “growth rescue (activation)” value is inactive: 27.5%.
To `Cc1cccc2nc(CSc3nc4ccccc4[nH]3)cn12` belongs inactive: 0.858%; to `COc1ccc(C(C(=O)NC(C)(C)C)N(C(=O)CCC(=O)Nc2cc(C)on2)c2c(C)cccc2C)cc1` (stereo not given), inactive: 5.3%; to `CC(OC(=O)CCC(=O)N1CCN(S(=O)(=O)c2ccc3ccccc3c2)CC1)C(=O)NC(N)=O` (stereo not given), inactive: -13.6%.
For the molecule `COc1ccc(S(=O)(=O)N2CCN(Cc3cccs3)CC2)cc1OC`, the “growth rescue (activation)” value is inactive: 29.7%.
To `COc1cc(/C=N/n2c(-c3ccccc3)n[nH]c2=S)cc(OC)c1O` belongs inactive: 35.2%; to `NS(=O)(=O)c1cccc(NC(=O)COC(=O)C2CCCCC2)c1`, inactive: 7.48%.
As for `O=C(NCc1ccccc1)c1ccc2c(c1)N(Cc1ccccc1)C(=O)c1ccccc1S2(=O)=O`, the figure is inactive: 21.4%; as for `CCCCCC(=O)NC(=S)Nc1cccc(-c2nc3ncccc3o2)c1`, inactive: -1.25%; as for `Cc1cc(=O)n2[nH]c(NCc3c(F)cccc3Cl)nc2n1`, inactive: -6.18%.
As for `CC(C)C(OC(=O)c1cccs1)C(=O)NCCc1ccccc1` (stereo not given), the figure is inactive: 15.6%; as for `O=C(CN1C(=O)S/C(=C/c2cccn2-c2ccc(O)cc2)C1=O)N1CCCC1`, inactive: 4.37%.
With `COC(=O)C1C(c2ccccc2)C(C(=O)O)C1c1ccccc1` (stereo not given), the “growth rescue (activation)” value is inactive: 5.35%.
To `O=C(CN1C(=O)C2CCCCC2C1=O)Nc1cccc(C(F)(F)F)c1` (stereo not given) belongs inactive: 6.24%; to `CC1CCCC(C)N1/N=C/c1cc(Br)cc(Br)c1O` (stereo not given), inactive: -3.13%; to `O=C(/C=C/Nc1ccc([N+](=O)[O-])cc1)c1ccc(Br)cc1`, inactive: 14.1%.
As for `CCOC(=O)c1cccc(OCC(O)CNCCOc2ccccc2F)c1` (stereo not given), the figure is inactive: -13.5%; as for `CC(=O)Nc1ccc(S(=O)(=O)N(Cc2ccccc2)c2ccccc2F)cc1`, inactive: 2.23%.
With `CCOc1ccc(CC(=O)NNC(=O)NC2CCCCC2)cc1`, the “growth rescue (activation)” value is inactive: -8.73%.
As for `O=C(NCc1ccccc1)C(c1c(F)cccc1Cl)N(C(=O)c1csnn1)C1CC1` (stereo not given), the figure is inactive: -1.26%; as for `CCOc1ccc(N=Nc2ccc(O)c3ncccc23)cc1`, inactive: 20.8%; as for `NC(=O)C1CCN(CC(O)COCc2ccccc2Cl)CC1` (stereo not given), inactive: -10.8%.
As to `CCCCC(=O)Nc1cnc(NC(=O)c2ccco2)cc1C`, the “growth rescue (activation)” value was inactive: -4.76%.
As for `COc1ccccc1CNC(=O)[C@@H]1CCCN1S(=O)(=O)c1ccc(Cl)cc1`, the figure is inactive: 6.12%.
To `CC1=C(C)CC(C(=O)N2CCN(Cc3ccc4c(c3)OCO4)CC2)C(C(=O)O)C1` (stereo not given) belongs inactive: -15.3%.
To `COc1ccc(C(=O)NNC(=O)Cc2nc3ccccc3n2C)cc1` belongs inactive: 11%; to `COc1cccc(CN2CCN(C3CSCCSC3)CC2CCO)c1` (stereo not given), inactive: -2.07%; to `Cc1ccc(C)c(CN2C(=O)c3ccccc3S(=O)(=O)c3ccc(C(=O)N4CCOCC4)cc32)c1`, inactive: -5.56%.
In the case of `O=C(O)c1ccccc1C(=O)NC1CCCc2ccccc21` (stereo not given), the “growth rescue (activation)” value was inactive: 0.459%.
To `C=CCc1c(C)nc2ccc(C(=O)OCC)cc2c1Cl` belongs inactive: 27.3%; to `Cc1ccc(OCCCc2c(C)n[nH]c2C)cc1`, inactive: 14.8%; to `Cc1cc(C)c(NC(=O)CCn2nnc3ccccc32)c(C)c1`, inactive: 7.3%.
To `O=S(=O)(c1cccs1)N1CCN(c2ccc(Cl)cc2)CC1` belongs inactive: -4.01%; to `O=C(COC(=O)CSc1ccc(Cl)cc1)Nc1ccc2[nH]c(=O)[nH]c2c1`, inactive: -22.8%; to `Cc1ccc(/C=C2\SC(=S)N(CCC(=O)NNS(=O)(=O)c3ccccc3)C2=O)cc1`, inactive: -13.7%.
`Cc1ccc(Nc2c([N+](=O)[O-])c(=O)oc3ccccc23)cc1C`: the “growth rescue (activation)” value was inactive: -14.1%.
In the case of `Cc1cc2ccccc2n1CCNCc1c(C(=O)N2CCOCC2)nc2ccccn12`, the “growth rescue (activation)” value is inactive: 23.4%.
To `CCS(=O)(=O)Nc1ccc(C2=NN(C(=O)c3ccco3)C(c3ccc(Cl)o3)C2)cc1` (stereo not given) belongs inactive: -2.79%; to `CSc1ccc(S(=O)(=O)N2CCC(C(=O)N3CCc4ccccc4C3)CC2)cc1`, inactive: 16.5%.
As for `CCOC(=O)C1CCN(S(=O)(=O)c2cccc(C(=O)Nc3ccccc3)c2)CC1`, the figure is inactive: 6.5%.
To `CCC1(C)Cc2c(sc(NC(=O)CCC(=O)O)c2C#N)CO1` (stereo not given) belongs inactive: 16.2%; to `Cc1ccc(C(=O)OCC(=O)NC2CC2)s1`, inactive: -5.08%.

(Values after PubChem BioAssay AID1347073 (National Center for Advancing Translational Sciences (NCATS), 2019).)
